{"source": "paper PMC6919601", "about": "“Identification of Plasmodium dipeptidyl aminopeptidase allosteric inhibitors by high throughput screening” (PLoS ONE, 2019)", "note": "Out of some 110,000 compounds screened, about 230 (0.21%) showed an effect of 50% or more. This is one part of the list.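 Further: 30 min substrate incubation versus DMSO and 10 µM JCP410 controls.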"}
{"molecular_target": "DPAP1 (Plasmodium falciparum, UniProt Q8IIJ9)", "sequence (Q8IIJ9 whole entry, looked up)": "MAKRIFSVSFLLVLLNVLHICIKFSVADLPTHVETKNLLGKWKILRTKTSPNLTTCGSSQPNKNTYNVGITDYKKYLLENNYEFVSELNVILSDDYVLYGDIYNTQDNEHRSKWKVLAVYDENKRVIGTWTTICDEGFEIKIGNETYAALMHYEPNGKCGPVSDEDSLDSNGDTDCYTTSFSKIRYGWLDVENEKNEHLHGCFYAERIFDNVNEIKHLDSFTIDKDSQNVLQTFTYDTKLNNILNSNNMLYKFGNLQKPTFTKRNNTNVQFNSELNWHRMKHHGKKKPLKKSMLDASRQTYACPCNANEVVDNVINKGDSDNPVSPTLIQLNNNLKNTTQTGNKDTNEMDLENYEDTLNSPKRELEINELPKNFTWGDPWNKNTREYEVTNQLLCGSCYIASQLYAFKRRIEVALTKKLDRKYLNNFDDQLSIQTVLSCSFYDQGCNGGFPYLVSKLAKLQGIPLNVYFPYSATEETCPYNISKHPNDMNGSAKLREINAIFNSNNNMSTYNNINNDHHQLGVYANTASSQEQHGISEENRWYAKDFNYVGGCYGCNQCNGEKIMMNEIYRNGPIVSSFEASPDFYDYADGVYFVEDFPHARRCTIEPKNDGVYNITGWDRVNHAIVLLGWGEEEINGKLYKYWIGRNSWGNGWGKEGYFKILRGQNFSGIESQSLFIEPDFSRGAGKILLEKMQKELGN", "assay": "primary screen, percent inhibition; read by cleavage of a fluorogenic dipeptide substrate; higher = more effect of the substance", "parameters": "species or system P. falciparum D10 trophozoite lysates; single well", "units": {"% Inhibition @ 10 uM": "%"}}
{"smiles": "Cc1ccc(NC(=O)CSC2=C(C#N)C(c3cccs3)CC(=O)N2)cc1", "note": "(centres unmarked)", "% Inhibition @ 10 uM": -2.91}
{"smiles": "COc1ccc(-c2cc(C(F)F)n3ncc(C(=O)N4CCN(c5ccc(OC)cc5)CC4)c3n2)cc1", "% Inhibition @ 10 uM": -3.65}
{"smiles": "O=S(=O)(c1ccc(Cl)cc1)n1c(C2CCCCC2)nc2ccccc21", "% Inhibition @ 10 uM": 1.5}
{"smiles": "Cc1oc(C)c(C(=O)NC(Cc2ccccc2)C(=O)O)c1C(=O)NC(Cc1ccccc1)C(=O)O", "note": "(centres unmarked)", "% Inhibition @ 10 uM": 0.9}
{"smiles": "Cc1cc(=O)oc2c(O)c(O)ccc12", "% Inhibition @ 10 uM": -3.65}
{"smiles": "CCCCOc1cccc(C(=O)Nc2cccc(OC)c2)c1", "% Inhibition @ 10 uM": -2.6}
{"smiles": "CN1C(=O)c2ccc(C(=O)Nc3ccc(Br)cc3C(=O)O)cc2C1=O", "% Inhibition @ 10 uM": -14.3}
{"smiles": "CCc1[nH]nc2c1C(c1ccc(OC)c(OC)c1)C(C#N)=C(N)O2", "note": "(centres unmarked)", "% Inhibition @ 10 uM": 0.746}
{"smiles": "C=CCn1c(SCC#N)nc2sc3c(c2c1=O)CCC3", "% Inhibition @ 10 uM": 4.33}
{"smiles": "C=CCOc1ccc(C2C3=C(O)CC(C)(C)CC3=NC3=C2C(=O)CC(C)(C)C3)cc1OCC", "note": "(centres unmarked)", "% Inhibition @ 10 uM": -0.759}
{"smiles": "CC(=O)c1c(C)n(-c2ccc(C)cc2)c2ccc(O)cc12", "% Inhibition @ 10 uM": -2.2}
{"smiles": "Nc1[nH]nc2c1C1(CCCC1)Cc1ccccc1-2", "% Inhibition @ 10 uM": -7.7}
{"smiles": "CCOc1ccccc1-c1nnc(-c2ccccc2C)o1", "% Inhibition @ 10 uM": 0.947}
{"smiles": "COc1ccc(-n2ncc3c(NCCc4ccccc4)ncnc32)cc1", "% Inhibition @ 10 uM": 4.46}
{"smiles": "O=C(Nc1ccc2c(c1)Cc1ccccc1-2)c1ccco1", "% Inhibition @ 10 uM": -4.92}
{"smiles": "O=C(O)/C(=C/c1cccs1)NC(=O)c1ccccc1", "% Inhibition @ 10 uM": 4.98}
{"smiles": "COc1cc2c(cc1OC)C(c1cccc(F)c1)NCC2", "note": "(centres unmarked)", "% Inhibition @ 10 uM": 10.1}
{"smiles": "OCCN(Cc1ccccc1)Cc1ccc(-c2ccccc2)cc1", "% Inhibition @ 10 uM": 4.8}
{"smiles": "O=C(CCNS(=O)(=O)c1ccc(Cl)cc1)NCCc1ccccc1", "% Inhibition @ 10 uM": -5.64}
{"smiles": "C#C[C@H](CCC)NC(=O)[C@H](Cc1c(F)cccc1F)NC(=O)c1ccc(-c2cc(C(=O)O)ccc2Cl)cc1", "% Inhibition @ 10 uM": -5.2}
{"smiles": "COc1ccc(CCNC(=O)CSCc2ccc(F)cc2)cc1OC", "% Inhibition @ 10 uM": 1.97}
{"smiles": "N#Cc1noc(C(=O)c2ccccc2)c1N", "% Inhibition @ 10 uM": 5.13}
{"smiles": "Cc1oc(-c2ccccc2F)nc1CS(=O)(=O)CC(=O)N1CCCCCC1", "% Inhibition @ 10 uM": -1.89}
{"smiles": "Oc1nc(NCc2ccco2)nnc1Cc1ccccc1", "% Inhibition @ 10 uM": 0.457}
{"smiles": "COc1cc2c(cc1OC)CN(Cc1ccoc1)CC2", "% Inhibition @ 10 uM": 5.37}
{"smiles": "Cc1nnc(NC(=O)c2cc(S(=O)(=O)N3CCOCC3)ccc2Cl)s1", "% Inhibition @ 10 uM": -10.2}
{"smiles": "COCC(C)NCc1ccc(Br)cc1", "note": "(centres unmarked)", "% Inhibition @ 10 uM": -2.91}
{"smiles": "CCOC(=O)N1CCN(C(=O)c2cc(-c3ccc(C)cc3C)[nH]n2)CC1", "% Inhibition @ 10 uM": 5.56}
{"smiles": "CCOC(=O)c1sc2ccccc2c1S(=O)(=O)NCc1ccccc1", "% Inhibition @ 10 uM": -2.29}
{"smiles": "Cc1ccc(N2C(=O)CC(NCCc3ccccc3Cl)C2=O)cc1", "note": "(centres unmarked)", "% Inhibition @ 10 uM": 1.28}
{"smiles": "CC(=O)Nc1ccc(Nc2nc(-c3c(C)nc4cc(C)ccn34)cs2)cc1", "% Inhibition @ 10 uM": 25.6}
{"smiles": "COCCCN(Cc1ccco1)C(=O)Cn1ncc2c3ccccc3nc-2c1O", "% Inhibition @ 10 uM": 0.275}
{"smiles": "N#Cc1c(NC(=O)COCc2cc(-c3ccc(F)cc3)on2)sc2c1CCC2", "% Inhibition @ 10 uM": 5.32}
{"smiles": "O=C(c1ccc(CNS(=O)(=O)c2ccc(Br)cc2)cc1)N1CCc2ccccc2C1", "% Inhibition @ 10 uM": -5.22}
{"smiles": "CCOc1ccccc1CNC(=O)C1=C(C)C(=O)OC12CCCCCC2", "% Inhibition @ 10 uM": 0.49}
{"smiles": "CCC1CCCCN1C(=O)c1cc2c(=O)oc3ccccc3c2s1", "note": "(centres unmarked)", "% Inhibition @ 10 uM": -3.48}
{"smiles": "Cc1ccc(S(=O)(=O)NC(C)C(=O)Nc2ccc(Oc3ccccc3)cc2)cc1", "note": "(centres unmarked)", "% Inhibition @ 10 uM": 0.145}
{"smiles": "COc1cccc(S(=O)(=O)Nc2ccc(C(=O)Nc3ccncc3)cc2)c1", "% Inhibition @ 10 uM": -1.04}
{"smiles": "C=CCNC(=O)c1cc(S(=O)(=O)N2CCCC(C)C2)ccc1F", "note": "(centres unmarked)", "% Inhibition @ 10 uM": 1.21}
{"smiles": "c1c(C23CC4CC(CC(C4)C2)C3)nc2nc3c(nn12)CCCC3", "% Inhibition @ 10 uM": -3.92}
{"smiles": "CC(NC(=O)CCCn1sc2ccccc2c1=O)C12CC3CC(CC(C3)C1)C2", "note": "(centres unmarked)", "% Inhibition @ 10 uM": -4.68}
{"smiles": "Cc1occc1C(=O)Nc1cccc(Cl)c1C", "% Inhibition @ 10 uM": -1.24}
{"smiles": "CCc1cccc2c(C#N)cn(CC(=O)NCc3ccco3)c12", "% Inhibition @ 10 uM": -3.63}
{"smiles": "O=C(NCc1cccs1)C1CCCN1S(=O)(=O)c1cccc2nsnc12", "note": "(centres unmarked)", "% Inhibition @ 10 uM": 8.9}
{"smiles": "CCCC(=O)C1=C(N2CCN(C3=C(C(=O)CCC)C(=O)CC(C)(C)C3)CC2)CC(C)(C)CC1=O", "% Inhibition @ 10 uM": -8.49}
{"smiles": "COc1cccc(C(=O)N2CCc3cc(OC)c(OC)cc3C2c2ccccc2)c1", "note": "(centres unmarked)", "% Inhibition @ 10 uM": 4.96}
{"smiles": "COC(=O)CC1(C)OCC(CN2CCCCC2)O1", "note": "(centres unmarked)", "% Inhibition @ 10 uM": 4.54}
{"smiles": "Cc1nn(C(=O)C(C)N2C(=O)c3ccccc3C2=O)c(C)c1Br", "note": "(centres unmarked)", "% Inhibition @ 10 uM": -3.64}
{"smiles": "Cc1ccc(C(=O)Nc2ccc3c(c2)C(=O)N(CC2CCCO2)C3=O)cc1", "note": "(centres unmarked)", "% Inhibition @ 10 uM": 4.75}
{"smiles": "N#CC1=C(N)Oc2c(c(O)nc3ccccc23)C1c1ccc(O)cc1", "note": "(centres unmarked)", "% Inhibition @ 10 uM": -4.04}
